Over roughly 33,000 sequences, “E-score (-0.5 to 0.5)” has its median near -0.017; the highest 2% begin near 0.3. Some of the results follow.
biological target: T1, Sut1 (UniProt P53032); assay: PBM E-score (8-mer binding enrichment) (E-score (-0.5 to 0.5)); higher = stronger / more preferred TF binding; most listed sequences are background and not binding sites; conditions: protein concentration: 200 nM; construct: GST-full length
T1 sequence: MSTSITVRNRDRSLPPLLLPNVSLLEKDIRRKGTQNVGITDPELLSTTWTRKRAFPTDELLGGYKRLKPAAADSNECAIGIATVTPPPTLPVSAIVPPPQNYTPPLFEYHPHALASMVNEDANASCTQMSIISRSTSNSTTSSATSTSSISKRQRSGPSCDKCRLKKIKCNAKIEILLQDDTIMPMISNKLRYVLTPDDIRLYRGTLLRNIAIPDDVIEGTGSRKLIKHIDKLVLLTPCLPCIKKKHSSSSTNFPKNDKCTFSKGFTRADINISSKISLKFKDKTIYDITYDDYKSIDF
Procedure, shortened: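 Universal all-10-mer Agilent arrays, double-stranded by primer extension on fresh or once-stripped slides, were probed with about 100-200 nM GST-tagged yeast transcription factors made by PURExpress. Fluorescent anti-GST detected bound protein, and masliner normalised the scans. E-scores from the Universal PBM Analysis Suite were given to each ungapped eight-base word pooled with its reverse complement.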

| Sequence | PBM E-score |
| --- | --- |
| AGTGGGGA | -0.158 |
| AAGCTCTC | -0.127 |
| GAGTCACA | -0.108 |
| ACATGGAA | 0.0799 |
| ACACCGGT | 0.0191 |
| CCACAACA | -0.131 |
| CGACCAGC | -0.199 |
| ACATTATC | 0.102 |
| CTAGGCAG | -0.0628 |
| AATTCCTA | 0.138 |
| GGGAGGCA | -0.305 |
| ATCCTCTC | -0.121 |
| GTCGCAAA | 0.131 |
| CGTACCCC | 0.023 |
| AGGCTGTA | -0.0333 |
| ACAAAGAT | 0.159 |
| ACCGGGAT | -0.00686 |
| AGTCATAC | 0.00053 |
| ACCCTACG | -0.102 |
| CGTTCCGA | 0.0366 |
| GCACATCC | -0.219 |
| CGCTCCTC | -0.184 |
| ACTGCCAT | -0.0998 |
| TAACCAGA | -0.0534 |
| ACAATATA | 0.29 |

| Sequence | PBM E-score |
| --- | --- |
| CTCCAGTA | -0.0808 |
| CTATGCAA | -0.0556 |
| ATGTACAA | 0.0935 |
| ACGGTACC | 0.0939 |
| GAACGGCA | 0.0523 |
| CAGCACGA | -0.162 |
| CACGTAAC | -0.16 |
| GCCGCTAC | -0.131 |
| AGTATGTG | 0.247 |
| AAGCTGTG | -0.179 |
| ATGAGCTA | 0.0367 |
| GGGATTTA | 0.187 |
| GTTAAATA | 0.249 |
| ACCATCAT | 0.143 |
| ATCAGCTC | -0.0823 |
| ATGTAGTA | 0.177 |
| GCACTGAA | 0.00589 |
| TAAGTCTA | -0.116 |
| CTAACCCA | -0.102 |
| TGTTGAAA | 0.107 |
| CTTTAGGA | -0.00397 |
| CGGCCCCC | -0.367 |
| TGTGAGAA | 0.127 |
| ACGGGATC | 0.0187 |
| GAGAGTCA | -0.119 |

| Sequence | PBM E-score |
| --- | --- |
| TCCACCCA | -0.205 |
| AGTCCCAA | -0.154 |
| AATTGTGA | 0.169 |
| GGTTAACC | -0.148 |
| AAGCGTCA | -0.0469 |
| GGCCGCCC | -0.227 |
| AACCTTTG | 0.0541 |
| AACATTCC | 0.0359 |
| CGATTCCA | 0.0585 |
| AGGTTACC | 0.168 |
| CGAGGTTC | 0.0362 |
| ATGAAACC | 0.0449 |
| AATCCTAC | -0.0158 |
| ATTCGGCA | 0.0323 |
| AGTCCAGC | -0.137 |
| CATCAAGC | -0.00808 |
| AGTCTTAA | -0.0471 |
| CCATAACA | 0.0447 |
| GTTGAGTA | 0.133 |
| ACCGCTCG | -0.0322 |
| CTAGCTAA | -0.082 |
| ATTGGGTC | 0.04 |
| ATTTCTAA | 0.0131 |
| AGCGCGAC | -0.0635 |
| CCCAGAAC | -0.0765 |

| Sequence | PBM E-score |
| --- | --- |
| CCGCGAGA | -0.257 |
| CGAGTCAC | -0.156 |
| TCGTATCA | 0.0667 |
| GAGCGCAA | -0.157 |
| GCGGGTTA | -0.334 |
| GAAGGATA | 0.042 |
| ACAGGCGC | -0.217 |
| AGCAGAAG | -0.162 |
| CGTTTGAC | -0.115 |
| AAATTATC | 0.281 |
| AGATTGAC | -0.082 |
| GTGTAGGA | -0.0986 |
| GACGTAAC | 0.0399 |
| GTGTATGA | 0.206 |
| ACGGTTAA | 0.103 |
| ATGATCGG | -0.0227 |
| ATTTATGA | 0.145 |
| ATCCTTTA | 0.108 |
| AGAGGTAT | 0.136 |
| CACGCGAA | -0.119 |
| AATCTGCA | -0.17 |
| CACAAGTG | -0.141 |
| CCAGCACA | -0.164 |
| CGCTCCGC | 0.0358 |
| GTAGTGAA | 0.125 |

| Sequence | PBM E-score |
| --- | --- |
| TAGGCTAA | -0.0895 |
| CACTATCA | -0.0232 |
| TCTTTGAA | 0.116 |
| GAACAAAA | 0.243 |
| AACCAAAA | 0.228 |
| CAGTTCAA | 0.0635 |
| CCCACATA | -0.231 |
| ACCCAGGA | -0.13 |
| ATTTCTAG | 0.231 |
| GACATCTA | 0.149 |
| CACGTGTA | -0.158 |
| CCACATGG | -0.139 |
| AGTACGAC | -0.191 |
| AGCCATTC | -0.116 |
| CTTGTCAA | 0.152 |
| AATAATAT | 0.346 |
| AGGAGAAG | -0.165 |
| CTAGGGAC | -0.127 |
| GTGTCTCA | -0.146 |
| CACAGAAC | -0.134 |
| CAGCCATA | -0.161 |
| CGAGGCCG | -0.304 |
| AAGTCTGA | -0.193 |
| GCAGTAGC | -0.296 |
| AACGAATA | -0.0104 |

| Sequence | PBM E-score |
| --- | --- |
| CACCCTCG | -0.261 |
| ACGGGGAT | 0.133 |
| CTTGGGTC | -0.328 |
| AGGCAATA | -0.108 |
| TTGGAAAA | 0.134 |
| GAGGTCCA | -0.167 |
| CAAACTGG | 0.0543 |
| ACGCGAGC | -0.0165 |
| TCGAGTAA | 0.0104 |
| AGCTGTTG | -0.0202 |
| ATGAGAAG | -0.179 |
| AGGCGCCT | -0.315 |
| CCATCAGC | -0.184 |
| CCCAATCC | -0.211 |
| GGAGACAA | 0.0139 |
| CCAGGTTC | -0.2 |
| AATCCTAT | 0.199 |
| GCGACCCA | -0.103 |
| CTTTCCTC | 0.00703 |
| GCTGTGCA | -0.285 |
| GGCAGGCC | -0.192 |
| CCCCCCGC | -0.282 |
| GGCCAGCA | -0.168 |
| CAAAGGTG | -0.101 |
| ATGCAGCG | -0.219 |

| Sequence | PBM E-score |
| --- | --- |
| AAAACGAC | 0.0435 |
| AGAATAGG | 0.173 |
| AGAGGATA | 0.0609 |
| GTTCCGGA | 0.342 |
| CCTGCCAG | -0.312 |
| ACGTTCCG | -0.101 |
| AGTGGTAC | -0.158 |
| ATGATCCG | -0.0542 |
| CCCCATCA | -0.248 |
| CAGCTATC | -0.207 |
| ATCTAATA | 0.194 |
| CGTAGATC | 0.0372 |
| ACTAGACA | 0.102 |
| AGCTTCGC | -0.0959 |
| TATTGTGA | 0.0252 |
| AAAGACTA | 0.0422 |
| CGTCCTAG | -0.167 |
| GCGGGAGC | -0.162 |
| AAGCCGGT | -0.073 |
| CAAGGGAG | -0.0721 |
| ATCCCCAT | -0.142 |
| CCGTACGC | -0.153 |
| ATGTATGC | 0.0223 |
| CCAATTGG | -0.0777 |
| CCGTTTTA | 0.139 |

| Sequence | PBM E-score |
| --- | --- |
| GCTGCTTA | -0.0582 |
| GACTAACC | -0.0877 |
| ACATAGTG | 0.13 |
| ACGAAACG | 0.0677 |
| TAGATAAA | 0.206 |
| GGTGGATA | -0.0355 |
| CACTCAAC | 0.0846 |
| GACAAGTA | -0.0227 |
| ACAAACCG | 0.104 |
| CGCTCGAA | -0.0769 |
| AGGTCCTG | -0.165 |
| AGAGCTTC | -0.0303 |
| AAACCACA | -0.00511 |
| ATCTGAAA | 0.0681 |
| AGACGTCC | -0.0578 |
| CCCTGTAG | -0.0873 |
| GATACTGC | 0.126 |
| CACCGGGG | -0.0525 |
| AGCGTGCA | -0.0658 |
| ATTCACTG | 0.0621 |
| CTAATGGC | 0.00327 |
| CCCACAAC | -0.0114 |
| CGGTGGGA | -0.273 |
| AAAACTCT | 0.0523 |
| CACTCGCA | -0.0703 |

| Sequence | PBM E-score |
| --- | --- |
| ATAGGCCA | -0.0395 |
| ACTATCAG | -0.0721 |
| CAGACCGC | -0.0767 |
| AATCAGTC | 0.0821 |
| AGATCTCG | -0.0106 |
| CCAAAAAC | 0.164 |
| CACATTCA | 0.152 |
| ACCGGGCG | -0.26 |
| ATGGTTTC | 0.128 |
| CAATTGGA | 0.0193 |
| AGTACTGA | 0.0787 |
| ATGCTAGC | 0.113 |
| CTTATAGA | 0.149 |
| GACAATCC | 0.109 |
| TAAGTCAA | 0.093 |
| AAGCAAGA | 0.0766 |
| ACCATTGA | 0.0561 |
| TCGACCGA | -0.118 |
| ACCACGCC | -0.178 |

— the supplement of paper PMC3334620
